Among the data in publication PMC8080764 are binding values, retold here.

Results are given in words; binding and its absence hold for the method and conditions named. In cells and extracts the contact can be indirect. Some results given as binding are weak or reduced against the parent protein; the word gives no strength.

For the assay, the target named is T1, serum response factor (SRF), endogenous in C2C12 cells (mouse (endogenous in C2C12)) (UniProt Q9JM73).
T1 sequence: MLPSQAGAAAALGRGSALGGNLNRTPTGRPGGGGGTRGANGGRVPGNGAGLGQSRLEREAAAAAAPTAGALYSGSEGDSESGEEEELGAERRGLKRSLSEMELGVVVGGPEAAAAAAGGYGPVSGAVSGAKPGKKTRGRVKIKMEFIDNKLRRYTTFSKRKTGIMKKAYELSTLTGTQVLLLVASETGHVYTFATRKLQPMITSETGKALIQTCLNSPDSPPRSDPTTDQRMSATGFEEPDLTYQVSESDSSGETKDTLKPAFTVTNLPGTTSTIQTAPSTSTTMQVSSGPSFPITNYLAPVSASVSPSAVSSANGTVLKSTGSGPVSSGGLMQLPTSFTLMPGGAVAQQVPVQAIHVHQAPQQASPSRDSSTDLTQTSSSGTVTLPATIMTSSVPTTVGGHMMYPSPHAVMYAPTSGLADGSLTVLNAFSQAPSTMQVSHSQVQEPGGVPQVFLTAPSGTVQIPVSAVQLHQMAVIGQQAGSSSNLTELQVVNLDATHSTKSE
Nature of the assay: co-IP; endogenous SET7 and SRF in C2C12 cells in growth medium (GM) or differentiation medium (DM); 0.5% NP40 lysis buffer.

B1: SET7, endogenous in C2C12 cells (enzyme, UniProt Q8VHL1 1-366)
chain: MDSDDEVVEEAVEGHLDDDGLPHGFCTVTYSSTDRFEGNFVHGEKNGRGKFFFFDGSTLEGYYVDDALQGQGVYTYEDGGVLQGTYVDGELNGPAQEYDSDGRLIFKGQYKDNNRHGVCWIHYPDGGSLVGEVNEDGEMTGEKIAYVYPDQRTALYGKFIDGEMLEGKLATLMATEEGRPHFEVTSGSSVYHFDKSTSSCISSDALLPDPYESERVYVADSLISSAGEGLFSKVAVGPNTVMSFYNGVRITHQEVDSRDWALNGNTLSLDEETVIDVPEPYNHVSKYCASLGHKANHSFTPNCVYDLFVHPRFGPIKCIRTLRAVEAEEELTVAYGYDHSPPGKSGPEAPEWYQVELKAFQATQQK
On to B1, for which the binding entry is listed as “binds”.
